From paper PMC4336329 (PLoS ONE, 2015)
The campaign covered roughly 310,000 compounds. About 2,200 (0.71%) showed an effect of 50% or more. The effect is printed as a negative number. The list shows a part of the results.

Target: human ether-à-go-go-related gene (hERG) potassium channel (human, UniProt Q12809)
Test: primary screen, population patch clamp on CHO cells stably expressing hERG

Sequence of human ether-à-go-go-related gene (hERG) potassium channel (Q12809 whole entry, looked up): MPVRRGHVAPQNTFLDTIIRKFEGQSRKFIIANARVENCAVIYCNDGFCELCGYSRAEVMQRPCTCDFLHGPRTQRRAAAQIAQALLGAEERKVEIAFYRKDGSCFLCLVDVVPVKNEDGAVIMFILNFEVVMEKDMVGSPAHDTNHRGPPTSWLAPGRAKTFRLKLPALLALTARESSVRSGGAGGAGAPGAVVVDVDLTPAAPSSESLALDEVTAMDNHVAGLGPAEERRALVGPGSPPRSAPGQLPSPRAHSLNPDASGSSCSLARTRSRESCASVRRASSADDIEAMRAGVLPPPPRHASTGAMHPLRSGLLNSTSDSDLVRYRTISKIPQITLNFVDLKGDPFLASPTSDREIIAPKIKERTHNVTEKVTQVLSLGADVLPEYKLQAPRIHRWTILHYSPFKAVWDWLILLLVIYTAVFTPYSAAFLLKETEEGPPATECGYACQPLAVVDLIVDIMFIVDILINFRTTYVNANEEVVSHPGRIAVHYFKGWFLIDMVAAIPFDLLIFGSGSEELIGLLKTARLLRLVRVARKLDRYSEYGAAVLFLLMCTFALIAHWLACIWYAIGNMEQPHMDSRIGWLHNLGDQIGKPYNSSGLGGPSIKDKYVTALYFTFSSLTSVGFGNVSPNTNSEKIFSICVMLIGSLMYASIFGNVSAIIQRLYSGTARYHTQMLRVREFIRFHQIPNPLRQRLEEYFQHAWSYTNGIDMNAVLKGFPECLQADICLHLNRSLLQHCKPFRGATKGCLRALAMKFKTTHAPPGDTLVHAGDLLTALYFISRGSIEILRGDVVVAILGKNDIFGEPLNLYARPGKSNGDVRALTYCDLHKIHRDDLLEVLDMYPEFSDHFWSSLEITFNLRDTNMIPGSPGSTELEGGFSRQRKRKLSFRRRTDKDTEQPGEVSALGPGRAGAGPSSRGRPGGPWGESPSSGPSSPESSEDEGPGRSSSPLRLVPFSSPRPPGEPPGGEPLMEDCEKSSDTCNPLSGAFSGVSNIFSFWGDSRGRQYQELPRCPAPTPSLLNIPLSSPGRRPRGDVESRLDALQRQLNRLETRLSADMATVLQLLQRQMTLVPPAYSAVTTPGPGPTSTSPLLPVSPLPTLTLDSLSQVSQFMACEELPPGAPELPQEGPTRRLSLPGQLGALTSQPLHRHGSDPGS

| SMILES | hERG current change (%, negative = inhibition) at 1uM |
| --- | --- |
| O=C(NC(=S)Nc1cccc2ncccc12)c1ccccc1 | -0.467% |
| CC1CC(C)(C)CC2(C1)NC(=O)N(CC(=O)NCC(c1ccco1)N1CCCCC1)C2=O (stereo not drawn) | -15.8% |
| COC(=O)c1ccc(Nc2c([N+](=O)[O-])ccc3nonc23)cc1 | 13% |
| O=C(CCN1CCCCC1)Nc1ccc(Cl)cc1C(=O)c1ccccc1 | -42.9% |
| COc1ccc(-c2nc(CS(=O)CC(=O)NCc3cccnc3)c(C)o2)cc1 (stereo not drawn) | 11.6% |
| COCCCn1c(SCC(=O)Nc2ccc3c(c2)OCCO3)nnc1-c1ccoc1C | 1.88% |
| COc1cc(/C=C2\SC(=S)N(NC(=O)c3ccc(O)c(OC)c3)C2=O)ccc1O | 13.4% |
| Fc1cccc(Cl)c1CSc1ccc(-c2cccnc2)nn1 | 0.367% |
| C=CCc1ccccc1OCCn1nnc2ccccc21 | 19.6% |
| CCn1c(=O)c(=O)[nH]c2c(=O)oc3ccc(S(=O)(=O)Nc4ccc(OC)cc4)cc3c21 | 13.8% |
| Cc1cc(C(=O)NNC(=O)c2ccc(Cl)cc2)no1 | 8.02% |
| O=c1nc2ccccc2c2n1CC(CN1CCN(C(c3ccccc3)c3ccccc3)CC1)N2 (stereo not drawn) | -9.49% |
| N#CC(c1ccccc1)c1ccc2c(C(F)(F)F)cc(C(F)(F)F)nc2n1 (stereo not drawn) | 12.7% |
| Cc1ccc(OCC(=O)Nc2ccc3c(c2)C(=O)NC3=O)cc1 | 7.91% |
| CC(C)Cc1nc(Cl)c(C#N)c2c1CCC2 | 7.58% |
| CCOc1cc(/C=N/Nc2ccc(C(=O)O)cc2)ccc1OC(=O)c1ccccc1C | 6.66% |
| O=C(NC1CC2CCCC(C1)N2C(=O)Nc1ccc(Cl)c(C(F)(F)F)c1)C1CC1 (stereo not drawn) | 13% |
| CNCC(=O)c1ccccc1.Cl | 0.119% |
| COCCn1c(SCc2ccc(C)cc2)nc2c1c(=O)[nH]c(=O)n2C | 10.2% |
| CCc1ccccc1NC(=O)c1cc(-c2cccc(O)c2)on1 | 10.1% |
| O=C1c2ccccc2C(Nc2ccc(F)cc2F)N1CCN1CCOCC1 (stereo not drawn) | 12.1% |
| CCN1C(=O)[C@H]2[C@@H](c3ccc(C)cc3)N3C(=O)N(c4cccc(F)c4)C(=O)[C@@]3(C)[C@H]2C1=O | 14.2% |

| SMILES | hERG current change (%, negative = inhibition) at 1uM |
| --- | --- |
| Cc1cccc2sc(N(CCCN(C)C)C(=O)c3ccc(S(=O)(=O)N4CCc5ccccc5C4)cc3)nc12.Cl | 6.29% |
| CCC(Oc1cc(Cl)ccc1Cl)C(=O)N1CCC2(CC1)OCCO2 (stereo not drawn) | 10.1% |
| Cc1ccc(N=Cc2sccc2C)cc1C | 16.7% |
| Cc1csc(NC(=O)c2ccc(N3CCCC3=O)cc2)n1 | 16.7% |
| Cc1c(O)c2cccnc2[nH]c1=O | 19.4% |
| Cc1cccc(CN2CCC(C(N)=O)CC2)c1 | 17.4% |
| O=[N+]([O-])c1cccnc1Oc1ccc(F)cc1 | 10.8% |
| O=C(Nc1ccc(S(=O)(=O)N2CCCC2)cc1)c1cccnc1Cl | 0.883% |
| CCCCCOC(=O)C1=C(C)Nc2ncnn2C1c1cccs1 (stereo not drawn) | 5.88% |
| COc1ccc(NC(=S)Nc2ccc(C)c(S(=O)(=O)N3CCCCC3)c2)cc1 | 10.6% |
| O=C(NC1CC1)c1ccc(-c2nc3ccccc3s2)s1 | 10.4% |
| COc1ccc(CN2CCN(S(=O)(=O)c3ccc(C)cc3)CC2)cc1OC | 10.2% |
| Cc1cc(Cl)c(S(=O)(=O)N2CCN(c3ccc(F)cc3)CC2)cc1OCC(N)=O | 10% |
| Cc1ccc2cc3cc(C(=O)N4CCCCCC4)oc3nc2c1 | 10.4% |
| CCCC(=O)N1CCN(c2ccc(NC(=O)c3cc4ccccc4o3)cc2)CC1 | 1.14% |
| CSc1ccc(CN(C)C(=O)CCNS(=O)(=O)c2ccc(C)c(C)c2)cc1 | 3.74% |
| O=C(O)c1ccc(NS(=O)(=O)c2ccc3c(c2)OCCCO3)cc1 | 3.86% |
| Cc1nn(CC(=O)NCCCN2CCCC2)c(=O)c2nn(-c3ccccc3)c(C)c12 | 17.1% |
| C[C@@H]1C[C@H]2OC(=O)C3(CO3)[C@H]2[C@H](O)[C@]2(C)C(=O)C3OC3[C@@H]12 (stereo partly drawn) | 17% |
| Cc1ccc(C(=O)CC(=O)c2ccccc2C)c(O)c1 | 4.65% |
| O=C(NC1CCN(Cc2ccccc2)C1)c1cc(S(=O)(=O)N2CCOCC2)ccc1Cl (stereo not drawn) | -11.9% |
| O=C(Nc1cccc(Cl)c1Cl)c1ccncc1 | 14.2% |

| SMILES | hERG current change (%, negative = inhibition) at 1uM |
| --- | --- |
| N#CC(C#N)=C1c2cc(S(=O)(=O)NCCO)ccc2-c2ccc(S(=O)(=O)NCCO)cc21 | 5.38% |
| CC(=O)c1cc(-c2ccccc2)n(CCC(=O)NC2CCCC2)c1C | 12.7% |
| Cn1c(SCC(=O)O)nc2ccccc2c1=O | 9.72% |
| C[C@H](NC(=O)[C@H](Cc1ccccc1)NC(=O)c1cc2cc(Cl)ccc2n1C)C(=O)O | 17.4% |
| COc1ccc(N(CC(=O)N2CCc3ccccc3C2)S(C)(=O)=O)cc1 | -9.71% |
| Cc1ccc(S(=O)(=O)/N=C(/c2ccccc2)N(C)c2ccc(O)cc2)cc1 | 2% |
| Cc1nc(SCc2c(F)cccc2Cl)c2c(=O)n(C)c(=O)n(C)c2n1 | 13.2% |
| Cc1ccccc1N(C(=O)c1csnn1)C(C(=O)NC(C)(C)C)c1ccncc1 (stereo not drawn) | 10.8% |
| O=C(Nc1cc(Cl)c(Cl)cc1Cl)c1cccnc1 | 15.8% |
| CC(=O)NC(c1ccco1)c1cc(F)c2cccnc2c1O (stereo not drawn) | 0.492% |
| Cl.Fc1ccc(CNCc2ccc3c(c2)OCO3)cc1 | 15% |
| O=C(CSc1nnc(C2CC2)n1-c1ccccc1)Nc1ccc(N2CCOCC2)cc1 | 11.1% |
| COc1ccc(N2CCN(c3nc4ccccn4c(=O)c3/C=C(\C#N)S(=O)(=O)c3ccccc3)CC2)cc1 | 7.19% |
| Cc1occc1C(=O)N/N=C/C(Br)=C/c1ccccc1 | 3.88% |
| CNC(=O)OCc1cccc(COC(=O)NC)n1.Cl | 17.5% |
| S=C1NC(c2cccs2)=CC(c2ccc(Br)cc2)N1 (stereo not drawn) | 7.78% |
| CC(NS(=O)(=O)/C=C/c1ccccc1)C(=O)NCCc1ccc(S(N)(=O)=O)cc1 (stereo not drawn) | 11.1% |
| Cn1c(=O)cc(-c2ccccc2)c2ccccc21 | -2.54% |
| CCOc1ccc(NC(=S)N2CCc3cc(OC)c(OC)cc3C2COc2ccc3c(C)cc(=O)oc3c2)cc1 (stereo not drawn) | 2.81% |
| Cc1c(-c2cccc(Cl)c2)nc2ccccc2c1C(=O)OCC(=O)Nc1ccc2c(c1)OCO2 | 12.7% |
| CCNc1cc(N2CCN(C)CC2)ccc1[N+](=O)[O-] | -1.45% |
| Cc1ccc(S(=O)(=O)Cc2ccc(C(=O)N3CCN(c4cc(C)ccc4C)CC3)o2)cc1 | 12.3% |

| SMILES | hERG current change (%, negative = inhibition) at 1uM |
| --- | --- |
| CCOc1ccc(Cc2nn[nH]n2)cc1 | 3.24% |
| Cc1n[nH]c(C)c1CN(C)C(=O)C1CCC(=O)N(CCc2cccc(F)c2)C1 (stereo not drawn) | 10.7% |
| COc1ccc(CNC(=O)C(OC(=O)c2ccco2)c2ccc(F)cc2)cc1 (stereo not drawn) | 12.6% |
| COC(=O)C1=C(C)N(C)C(C)=C(C(=O)OC)C1c1ccc(Cl)cc1 | 17.2% |
| COc1ccccc1NC(CC(=O)c1ccccc1)C(=O)OCC(=O)c1ccc(F)cc1 (stereo not drawn) | -11.1% |
| COc1ccc(OCCOCCN2CCc3ccccc3C2)cc1 | -46.2% |
| CC(C)(C)NCc1cc(Br)ccc1OC1CCCC1.Cl | -0.406% |
| Cc1cc(-c2nnc3n2N=C(c2ccc(-c4ccccc4)cc2)CS3)n[nH]1 | 10.1% |
| CC(C)(C)c1nc(SCC(=O)N2CCCC2)c2ccccc2n1 | 15.3% |
| O=C(COC(=O)c1cccc([N+](=O)[O-])c1)NC1CCCC1 | 14% |
| CCOC(=O)N1CCN(C(=O)c2ccc(NC(C)=O)cc2)CC1 | 11% |
| CCC1CCCCN1CCn1c(=S)[nH]c2cc(OC)c(OC)cc2c1=O (stereo not drawn) | -18.7% |
| Cc1ccc(NC(=O)CNc2cccc(S(=O)(=O)N3CCOCC3)c2)cc1F | 7.05% |
| Cc1cc(Cc2cc(C)c(N)cc2C)c(C)cc1N | 8.22% |
| CC(C)NS(=O)(=O)c1ccc(OCC(=O)NCc2ccc3c(c2)OCO3)c(Cl)c1 | 6.8% |
| O=C(COC(=O)c1ccccc1[N+](=O)[O-])Nc1nnc(-c2ccccc2)o1 | 17.3% |
| CC(C)(O)[C@H](O)COc1c2occc2cc2ccc(=O)oc12 | 12.2% |
| CN(CC(=O)Nc1ccccc1Br)C(=O)CN1CCN(Cc2ccc(Cl)cc2)CC1 | -33.1% |
| Cc1cccc(C)c1NC(=O)CSc1ccc([N+](=O)[O-])cn1 | 8.3% |
| CCOC(=O)C1CN(S(=O)(=O)c2ccc(C)cc2)CCN1S(=O)(=O)c1ccc(C)cc1 (stereo not drawn) | 4.75% |
| CCOc1ccc(CCNC(=O)c2cc3sc(Cl)cc3n2C)cc1OCC | 13.7% |
